# Hit rate of the full screen: of about 310,000 compounds, about 11,000 (3.5%) were called active. The shares of active, inactive and inconclusive entries below differ from those in the screen. Calls follow the shape of the dose curve; as a rule, active = well fitted inhibition curve with a large enough effect; inconclusive = small, poorly fitted or top-dose-only effect, or effect the other way; inactive = flat fitted curve, though single readings scatter. Potencies of inconclusive entries are left out as doubtful fits.
# Test: VP16 counterscreen qHTS for inhibitors of ROR gamma transcriptional activity;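 also: Gal4-VP16 expression switched on by copper sulfate through the metallothionein promoter; nearly all actives have a fitted effect of over 50% in size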
# Conditions: Drosophila S2 Gal4-VP16 UAS-luciferase, luminescence, 20 h; activity, negative = inhibition: at 53.6 µM (top of the series)
# % is scaled to controls: 0 for no effect and ±100 for the full control effect; potency is read from the fitted curve at half-maximal effect; tags tell the direction and shape of the fitted curve.
SMILES,Potency,"activity, negative = inhibition"
Cc1cccc2nc(CSc3nc4ccc([N+](=O)[O-])cc4[nH]3)cn12,"inconclusive [inhibitor, single point]",
Cn1c(=O)c2c(nc(Oc3cccc(Br)c3)n2C)n(C)c1=O,inactive,
Cc1nc(-c2cccc(S(=O)(=O)N3CCCCCC3)c2)cs1,"inconclusive [inhibitor, single point]",
CC(C)(C)OC(=O)CNC(=O)c1[nH]cnc1C(=O)Nc1ccc(Cl)cc1,active: 12.6 µM,
COc1ccc(S(=O)(=O)CCC(=O)N2CCN(c3ccc([N+](=O)[O-])cc3)CC2)cc1,"inconclusive [inhibitor, single point]",
Cc1ccc(C(=O)NCCOc2cccc(C)c2)cc1,"inconclusive [activator, single point]",
Cc1cc(C)cc(NC(=O)CCn2cnc3cc(C)c(C)cc32)c1,inactive,
Cc1ccc(C(=O)CSc2nnc(C(C)C)n2C)cc1C,"inconclusive [inhibitor, single point]",
CN(C)CCCN(C(=O)c1ccc(S(=O)(=O)N(C)Cc2ccccc2)cc1)c1nc2cc3c(cc2s1)OCO3,"inconclusive [inhibitor, single point]",
O=C(C1CCN(S(=O)(=O)c2cccnc2)CC1)N1CCN(c2ccc(Cl)cc2)CC1,"inconclusive [inhibitor, single point]",
COc1ccc(-c2nnc(NC(=O)Cc3ccccc3)o2)cc1,active: 2.82 µM,
O=C(c1ccccc1)c1ccc(-c2ccc(O)cc2)cc1,active: 17.8 µM,
CC1=C(c2ccccc2)C(=S)NC(C)(C)C1,active: 7.08 µM,
Cc1ccc(-c2nnc(SCC(=O)CC(=O)Nc3ccccc3)n2-c2ccccc2)cc1,"inconclusive [inhibitor, partial curve, poor fit]",
Nc1n[nH]c(N)c1N=Nc1cccc(F)c1,inactive,
Cc1ccc(S(=O)(=O)Cn2nnnc2CN2CCCC3(CCCCC3)C2)cc1,"inconclusive [inhibitor, single point]",
O=C(NC(=S)NNC(=O)[C@H]1C[C@@H]1c1ccccc1)c1ccc(F)cc1,"inconclusive [inhibitor, single point]",
O=[N+]([O-])c1ccc(/C=[N+](\[O-])[C@@H]2CCCC[C@@H]2/[N+]([O-])=C/c2ccc([N+](=O)[O-])o2)o1,"inconclusive [inhibitor, single point]",
O=S1(=O)CCC(NC(=S)NC2CCS(=O)(=O)C2)C1 (stereo not given),"inconclusive [inhibitor, partial curve, poor fit]",
C/C(CC(=O)Nc1cccc(Br)c1)=N\NC(=O)c1ccc(O)cc1O,"inconclusive [inhibitor, partial curve]",
Cn1cnnc1SCc1ccc(C(=O)NN)cc1,inactive,
Cc1cccc(-n2ncc3c2CCCC3NC(=O)CCc2ccncc2)c1C (stereo not given),"inconclusive [inhibitor, single point]",
OC1OC[C@H](O)[C@@H](O)[C@H]1O (stereo not given in full),inactive,

SMILES,Potency,"activity, negative = inhibition"
Cc1ccc(Nc2nc(N3CCOCC3)c3ccccc3n2)cc1,"inconclusive [inhibitor, single point]",
Cc1cc(Br)ccc1SCC(=O)N1CCN(S(=O)(=O)c2ccccc2)CC1,active: 7.08 µM,
O=S(=O)(c1ccc(NC(=S)N/N=C/c2ccc(N3CCOCC3)cc2)cc1)N1CCOCC1,active: 6.31 µM,
Cc1cccc(N(C(=O)C(F)(F)F)C(C(=O)NC2CCCCC2)c2cccs2)c1 (stereo not given),"inconclusive [inhibitor, single point]",
COc1cc(N/N=C/c2ccc(N(C)C)cc2)ncn1,"inconclusive [inhibitor, single point]",
Cc1ccc(C(=O)CC(=O)c2cccc(F)c2)c(O)c1,"inconclusive [inhibitor, single point]",
O=C(CCCN1C(=O)/C(=C\c2cccs2)SC1=S)Nc1ccccn1,"inconclusive [inhibitor, single point]",
Cc1ccc2nc(N3CCN(C)CC3)c(C=O)c(=O)n2c1,inactive,
O=C(NC1CCN(Cc2ccccc2)CC1)C1CCN(S(=O)(=O)c2ccc(Cl)cc2)CC1,"inconclusive [inhibitor, single point]",
CO/N=C(/C)CCC(=O)OC[C@@H]1O[C@H](c2ccccc2)C=C[C@@H]1Oc1ccc(OC)cc1,,inactive: -0.208% [at 10 µM]
COc1cccc(CNC(=O)CCCSc2ccccc2)c1,inactive,
CN(C)c1cc[n+](Cc2ccccc2)cc1,"inconclusive [inhibitor, single point]",
Cc1nn(CC2CC2)c(=O)n1-c1ccc(Oc2ccccc2)cc1,"inconclusive [inhibitor, single point]",
CCOc1ccc(N(C)S(=O)(=O)c2cc(-c3cc(C)no3)ccc2C)cc1,inactive,
CN(C(=O)c1cccc(OC2CCN(S(=O)(=O)N(C)C)CC2)c1)C1CCOC1 (stereo not given),"inconclusive [inhibitor, single point]",
COc1ccc(C(=O)/C=C/Nc2cc(C)ccn2)cc1,"inconclusive [inhibitor, partial curve, poor fit]",
C(=N\Nc1nc2ccccc2[nH]1)/c1ccc2c(c1)OCO2,"inconclusive [inhibitor, single point]",
Cn1cc(Cl)c(C(=O)NNC(=S)Nc2cccc(Cl)c2)n1,"inconclusive [activator, single point]",
O=[N+]([O-])c1cc(C(F)(F)F)ccc1NCCc1c[nH]c2ccc(O)cc12,"inconclusive [inhibitor, single point]",
Cc1cccc(N2C(=O)CC(Sc3ccccc3C(=O)O)C2=O)c1 (stereo not given),active: 5.01 µM,
O=S(=O)(c1cccs1)N1CCC(CO)(Cc2ccc(Cl)cc2)CC1,"inconclusive [inhibitor, single point]",
O=C(CCS(=O)(=O)c1ccccc1)Nc1nccs1,inactive,

# — PubChem BioAssay AID2546 (National Center for Advancing Translational Sciences (NCATS), 2010)
